Reference: PubChem BioAssay AID488969 (Vanderbilt High Throughput Screening Facility, 2010)
“And” between values parts separate entries of the source, which are not always exact repeats. Equal entries are not always repeated. The full ranking holds about 110,000 compounds; the median of “z-score” is about -0.1, and the highest 2% start at about 2. The list shows a part of the results. The source made the active and inactive calls.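 How the source made its calls: active means z-score in the third read window above 3 or below -3; inactive means the rest.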

What follows are molecules tested against Metabotropic glutamate receptor 8 (Rattus norvegicus) (UniProt P70579) (assay: mGluR8 Gi/Go-coupled signaling modulation – cell-based, rat, thallium flux, HTS, primary screen (AID 488969)). Conditions: HEK293 rat mGluR8, GIRK (G protein-gated inwardly rectifying potassium channel) thallium flux, FluoZin2; at 10 µM; stronger effect = higher value; submaximal glutamate (EC20) added with thallium.
Sequence of UniProt P70579 (P70579 whole entry, looked up): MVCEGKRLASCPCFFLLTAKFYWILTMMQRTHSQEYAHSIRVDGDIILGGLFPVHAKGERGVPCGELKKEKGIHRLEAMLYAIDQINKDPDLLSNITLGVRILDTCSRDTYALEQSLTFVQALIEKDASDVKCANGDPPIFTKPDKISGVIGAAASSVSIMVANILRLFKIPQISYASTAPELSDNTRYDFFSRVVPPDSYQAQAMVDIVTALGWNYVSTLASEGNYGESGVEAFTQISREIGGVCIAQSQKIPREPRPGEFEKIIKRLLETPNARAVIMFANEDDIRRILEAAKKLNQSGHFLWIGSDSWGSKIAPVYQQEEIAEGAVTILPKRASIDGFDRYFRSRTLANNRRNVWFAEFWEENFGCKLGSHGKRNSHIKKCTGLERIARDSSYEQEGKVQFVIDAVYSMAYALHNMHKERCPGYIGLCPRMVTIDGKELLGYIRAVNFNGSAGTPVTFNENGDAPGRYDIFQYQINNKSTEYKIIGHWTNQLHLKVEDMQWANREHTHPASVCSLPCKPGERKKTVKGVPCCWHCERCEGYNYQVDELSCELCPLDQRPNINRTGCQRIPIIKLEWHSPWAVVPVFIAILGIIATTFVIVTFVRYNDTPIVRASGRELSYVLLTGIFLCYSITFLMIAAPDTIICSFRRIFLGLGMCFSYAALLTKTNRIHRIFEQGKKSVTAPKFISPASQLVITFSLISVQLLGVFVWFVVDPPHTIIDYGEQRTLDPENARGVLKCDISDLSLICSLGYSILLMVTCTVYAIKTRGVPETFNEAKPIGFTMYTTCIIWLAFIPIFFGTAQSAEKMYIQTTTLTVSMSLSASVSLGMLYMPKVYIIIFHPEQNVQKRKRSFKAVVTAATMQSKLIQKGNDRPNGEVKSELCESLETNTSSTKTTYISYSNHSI

Point of comparison: `Cc1c(NC(=O)OC(C)C)sc(=S)n1C`, z-score -0.154. Against it:
- COc1ccc(S(=O)(=O)N2CCN(S(=O)(=O)c3ccc(C(F)(F)F)cc3)CC2)cc1C — lower, -0.768
- OC(COc1ccc2ccccc2c1Br)Cn1cnc(-c2ccccc2)c1 (stereo unspecified) — higher, 0.432
- Clc1ccc(OCc2nc(-c3ccccn3)n[nH]2)cc1 — higher, 1.03
- O=S(=O)(/N=C/N1CCOCC1)c1ccc(Cl)cc1 — lower, -0.206
- O=C(C1CCCO1)N1CCN(S(=O)(=O)c2ccccc2)CC1 (stereo unspecified) — lower, -0.34
- CCOC(=O)c1sc(-c2ccccc2)cc1N — higher, -0.0564
- O=C(NCCN1CCOCC1)c1ccc2c(c1)N(Cc1ccccc1F)C(=O)CS2 — lower, -1.38
- CCC(C)Oc1nc2ccccc2nc1NS(=O)(=O)c1ccccc1 (stereo unspecified) — higher, -0.098
- O=C(Oc1ccc(-c2nc(-c3ccccn3)no2)cc1)c1ccccc1 — higher, 0.599
- CCc1ccc(-c2cn3nc(C)c(C)nc3n2)cc1 — higher, 0.536
- CCCCN=C1N/C(=C\c2ccco2)C(=O)N1c1ccccc1 — lower, -0.339
- CC(C)OC(=O)CSc1ncnc2c1cnn2Cc1ccccc1 — higher, 0.106
- CCOC(=O)c1ccc(NC(=O)CS(=O)(=O)c2cn(CC)c3ccccc23)cc1 — lower, -0.296
- CC1(C)Cc2nc3sc4c(=O)n(CC(N)=O)cnc4c3cc2CO1 — higher, -0.148
- Fc1ccc(CNC(=S)NC2CCCC2)cc1 — higher, 0.00441
- Cc1nn(CC(=O)Nc2nc3ccccc3s2)c(C)c1[N+](=O)[O-] — higher, 0.602
- CCc1nnc(NC(=O)CN2C(=O)CCC2=O)s1 — higher, 0.92
- CCCOC(=O)c1ccc(NC(=O)c2ccc(Br)o2)cc1 — lower, -0.692
- CC(=O)N1CCc2cc(S(=O)(=O)N3c4ccccc4CC3C)ccc21 (stereo unspecified) — higher, -0.113
- CC(C)C(=O)NC(c1cccs1)c1cc([N+](=O)[O-])c2cccnc2c1O (stereo unspecified) — higher, 0.262
- Cc1[nH]c2c(C)cccc2c1CCNC(=O)C1CCCCC1C(=O)OCC(F)(F)F (stereo unspecified) — lower, -0.324
- O=C1CCCc2ccccc2N1Cc1ccc(Cl)cc1 — lower, -0.414
- CCOc1cccc(C(=O)Nc2cccc(-c3nc4ncccc4o3)c2C)c1 — higher, -0.073
- CCOC(=O)CC1=C(C(=O)OCC)C(c2cc(OC)c(OC)cc2OC)C(C#N)=C(N)O1 (stereo unspecified) — higher, 0.17
- O=C(CSc1ccccc1)NCCCN1CCOCC1 — higher, 0.141
- CCOC(=O)C1=C(c2ccccc2)N=C2SCC(=O)N2C1c1cccc(OC)c1 (stereo unspecified) — lower, -0.311
- COC(=O)CCC(NC(=O)c1cc(C)oc1C)C(=O)OC (stereo unspecified) — lower, -0.261
- C[N+](C)(C)c1ccc(/C=N/Nc2nc(Cl)c(C#N)c(Cl)c2Cl)cc1 — higher, 0.233
- Cc1cccc2cc(C#N)c(SCCN3CCCCC3)nc12 — higher, 0.847
- Cn1nnnc1SCC(=O)Nc1ccccn1 — lower, -0.19
- CCN(CC(=O)Nc1ccccc1OC)C(=O)COc1ccc2ccccc2c1 — higher, -0.0694
- Cc1ccc(C(=O)NCc2ccc(N3CCN(C(=O)OC(C)(C)C)CC3)cc2)cc1 — higher, 0.42
- COc1ccc(Nc2ncnc3ccccc23)cc1 — lower, -0.249
- COc1ccccc1N1CCN(CC(O)COCCOc2ccc(Br)cc2)CC1 (stereo unspecified) — lower, -0.42
- COc1ccccc1N(CC(=O)NC(C)C)S(=O)(=O)c1cccs1 — higher, 0.0521
- CN(C)S(=O)(=O)N(CC(=O)NCc1ccccc1)c1ccccc1 — higher, -0.00107
- O=C(NCc1ccccc1)NC1(C(=O)N2CCCC2)CCCCC1 — higher, 0.429
- CC(=O)SCCC(=O)N1C(C)CCCC1C(=O)O (stereo unspecified) — lower, -0.3
- COc1ccc(CCNC(=O)c2ccc(-c3ccc([N+](=O)[O-])cc3Cl)o2)cc1OC — lower, -0.288
- CCN(c1ccc(C)c(C)c1)S(=O)(=O)c1ccc2c(c1)CCN2C(=O)CCC(=O)O — higher, 0.0502
- O=C(O)C1CC=CCC1C(=O)Nc1cccc(F)c1 (stereo unspecified) — lower, -0.623
- CCC(=O)c1cccc2c1N=CC1=C(CC(C)(C)CC1=O)N2 — higher, 0.228
- Cc1ccc(S(=O)(=O)CCC(=O)NCc2ccccc2Cl)cc1 — higher, 0.305
- Cc1nnc(SCC(N)=O)n1CCc1ccccc1 — lower, -0.475
- COC(=O)c1cccc(Cn2nnc3ccccc3c2=O)c1 — higher, 0.0414
- NC(=O)CSc1c[nH]c2ccccc12 — higher, 0.122
- COc1ccc(CCNC(=O)Cn2c(-c3nonc3N)nc3ccccc32)cc1OC — lower, -0.243
- Fc1ccccc1N1CCN(Cc2nc(-c3ccccc3)no2)CC1 — higher, -0.0575
- COc1ccccc1Nc1ncccc1C(=O)NCc1ccccc1 — higher, 0.0123
- CC(=O)c1ccc(N2CCN(C(=O)c3ccc4c(=O)n(-c5ccccc5)c(=O)[nH]c4c3)CC2)cc1 — lower, -0.327
- Cc1cc(C(=O)N2CCN(c3ncccn3)CC2)cs1 — lower, -0.16
- CC(C)Cn1c(C(C)C)nc([N+](=O)[O-])c1Sc1ccc(Cl)cn1 — lower, -0.454
- Clc1cc(CSc2ccccc2)nc(-c2ccccc2)n1 — higher, -0.144

For `O=C(Cc1cc(=O)[nH][nH]1)N/N=C/C(Cl)=C/c1ccccc1`, the z-score was -0.191 and -0.199.
With `O=C(Nc1ccccc1)c1ccccc1NS(=O)(=O)c1ccc(Cl)s1` the z-score was active: -3.39.
